The values that follow come from PubChem BioAssay AID463173 (ICCB-Longwood Screening Facility, Harvard Medical School, 2010).

Among all 52,000 compounds or so, about 4,300 (8.3%) were called active. Cut-off read from the data, not from the text of the source: active = survival mostly below about 52% (no sharp cut-off); inactive = mostly above about 56%. Some of the results follow.

This assay has as its system DeltatarO mutant. Nature of the assay: S. aureus survival, RN4220 and DeltatarO strains – OD600, teichoic acid synthesis inhibitors, primary screen (AID 463173). The following applies: S. aureus RN4220 wild type/DeltatarO growth, OD600, 18 h, hits give low values, screened at 18.75 µg/mL (by protocol).
Take `CC1CCN(C(=O)C2COc3ccccc3C2)CC1` (stereo unspecified): the survival was inactive: 57%.

Take `O=C(NC1CCCCC1)C(c1ccc(F)cc1)N(Cc1ccco1)C(=O)c1ccccn1` (stereo unspecified): the survival is inactive: 70%.

For `Cc1cccc(NC(=O)c2oc3ccccc3c2NC(=O)Cc2coc3ccc(C(C)C)cc23)c1`, the survival is inactive: 67%.

As to `O=[N+]([O-])c1cc(-c2nc(-c3ccccc3)no2)ccc1N1CCOCC1`, the survival is inactive: 65%.

Regarding `COc1ccc(-c2nc(CCNC(=O)c3ccc(Br)o3)cs2)cc1`, the survival is inactive: 122%.

As for `CCOc1ccccc1NC(=O)C1=C(C)Nc2ncnn2C1c1ccc(C)o1` (stereo unspecified), the survival is inactive: 70%.

Take `CCc1ccccc1NC(=O)Cn1c(SCc2ccc(F)cc2)nc2ccncc21`: the survival was active: 36%.

In the case of `CCc1cccc(CC)c1NC(=O)CCS(=O)(=O)c1ccc2c(c1)CCN2C(C)=O`, the survival was inactive: 92%.

Regarding `COc1ccc(-c2nc(CNS(=O)(=O)c3cccc(F)c3)cs2)cc1`, the survival was inactive: 89%.

`CC1(C)CC(=O)C2=C(C1)NCN(Cc1ccccc1)C2`: the survival is inactive: 87%.

For the compound `COc1ccc(OC)c(CNCc2c(C(=O)O)n(Cc3cccc(F)c3)c3cc(OC)ccc23)c1`, the survival was active: -1%.

Consider `Cc1ccc(C(c2c(O)cc(C)n(Cc3ccco3)c2=O)N2CCC(C)CC2)cc1` (stereo unspecified), for which the survival is inactive: 80%.

`NC(=O)CN(C1CCCCC1)S(=O)(=O)c1ccc(Br)cc1`: the survival is inactive: 96%.

With `Cc1cc(-c2ccc(C)c(S(=O)(=O)NCC3CCN(Cc4ccccc4F)CC3)c2)on1`, the survival was inactive: 55%.

For the compound `CC(C)(O)/C(=C\C#N)n1c(=O)oc2ccccc21`, the survival is inactive: 85%.

With `Cc1ccc(SCC(=O)Nc2ccc3oc(-c4cccc(Cl)c4)nc3c2)cc1`, the survival is inactive: 72%.

For the compound `O=C(Cn1ncc2c3ccccc3n(Cc3ccc(F)cc3)c2c1=O)NCc1ccccn1`, the survival is inactive: 79%.

For `O=C(NCc1ccccc1)C(=O)Nc1c2c(nn1-c1ccccc1)CSC2`, the survival is inactive: 87%.

As to `CS(=O)(=O)c1ccc2sc(N)nc2c1`, the survival was inactive: 74%.

On to `CCOC(=O)c1cccc(NC(=O)c2cnc3sc(N4CCOCC4)nn3c2=O)c1`, for which the survival is inactive: 90%.

As to `Cc1ccc2c(c1)c1c(c(=O)n(Cc3ccccc3)c(=O)n1CC(=O)Nc1ccccc1F)n2C`, the survival was inactive: 75%.

In the case of `Cc1ccccc1CCNC(=O)c1ccc2c(c1)nc1n2CCCCC1`, the survival is inactive: 83%.

Turning to `Cc1cc(C)cc(NC(=O)C2CC(=O)N(c3ccccc3)C2)c1` (stereo unspecified), the survival was inactive: 78%.

On to `Cc1ccc(-c2nc3ccccc3o2)cc1NC(=O)Cc1ccc(Cl)cc1`, for which the survival was inactive: 73%.

Take `O=C(CCn1c(=O)c2sccc2n(Cc2ccc(F)cc2Cl)c1=O)NCc1ccc2c(c1)OCO2`: the survival was inactive: 83%.

As for `O=C(Nc1sc2c(c1C(=O)NCC1CCCO1)CCCC2)c1cc(=O)c2ccccc2o1` (stereo unspecified), the survival is inactive: 50%.

Consider `Cc1cccc(-c2nc(CN3CCCC(C(=O)NCCc4ccc(Cl)cc4)C3)c(C)o2)c1` (stereo unspecified), for which the survival was active: 34%.

On to `COc1ccc(OC)c(S(=O)(=O)NCC(c2cccs2)S(=O)(=O)c2ccc(F)cc2)c1` (stereo unspecified), for which the survival is inactive: 106%.

For the compound `Cc1cc(F)ccc1NC(=O)C1CCC(CNS(=O)(=O)c2ccc3c(c2)CCCC(=O)N3)CC1` (stereo unspecified), the survival was inactive: 80%.

For the compound `CCCS(=O)(=O)N1CCC(C(=O)NCCOC)CC1`, the survival is inactive: 67%.

For the compound `Cc1ccccc1NC(=O)c1sc2nc3c(cc2c1N)CN(Cc1ccccc1)CC3`, the survival was inactive: 90%.

`Cc1nc2ncccn2c1-c1csc(NCc2ccco2)n1`: the survival was inactive: 80%.

Regarding `O=C(O)c1ccc(Cn2c(SCc3ccc(F)cc3)nc3ccncc32)cc1`, the survival is inactive: 88%.

On to `COCCNc1ccc2cc(S(=O)(=O)N3CCCCC3)ccc2n1`, for which the survival is inactive: 84%.

In the case of `COCCNC(=O)CCCn1c(SCC(=O)NCc2ccc(C)cc2)nc2c(sc3ccccc32)c1=O`, the survival was inactive: 87%.

Turning to `CCC(C)NC(=O)c1sc2nc(C)c(C(=O)Nc3ccc(C)cc3C)c(-c3ccc(NC(C)=O)cc3)c2c1N` (stereo unspecified), the survival was inactive: 88%.

As to `Cc1ccccc1OCCn1cc(/C=C(\C#N)C(=O)NC2CC2)c2ccccc21`, the survival is inactive: 58%.

As to `Cc1ccccc1Cn1c(=O)n(-c2ccc(Cl)cc2)c(=O)c2c3c(sc21)CCCC3`, the survival was inactive: 114%.

Regarding `CCc1ccc(NS(=O)(=O)c2[nH]ncc2C(=O)OC)cc1`, the survival is inactive: 64%.

As to `COc1ccc(Cn2c(C(=O)O)c(CNCc3ccc(SC)cc3)c3ccc(OC)cc32)cc1`, the survival is inactive: 56%.

In the case of `CC(C)NC(=O)CN1C(=O)CCn2nc(-c3cn(C)c4ccccc34)cc21`, the survival is inactive: 102%.

In the case of `COc1ccc(N2C(=O)CSC23C(=O)N(Cc2cccc(F)c2)c2ccccc23)cc1Cl` (stereo unspecified), the survival was inactive: 93%.

`O=S(=O)(c1ccc2nc(N3CCN(c4ccccc4F)CC3)ccc2c1)N1CCCCC1`: the survival is inactive: 115%.

In the case of `Cc1nc(-n2nc(C)c(CCC(C)C)c2C)sc1C(=O)Nc1ccc(Cl)cc1`, the survival is inactive: 56%.

For `Cc1ccc(-n2nc(C)c3c(C)cc(=O)n(CC(=O)Nc4cccc(C)c4C)c32)cc1`, the survival is inactive: 123%.

Consider `O=C(Nc1cc2c(cc1C(=O)c1ccccc1Br)OCCO2)c1cccc(Cl)c1`, for which the survival was inactive: 58%.

On to `O=C(c1cc2c(=O)oc3ccccc3c2s1)N1CCN(c2ccccc2)CC1`, for which the survival was inactive: 169%.

Regarding `COc1ccc2c(c1)c1c(c(=O)n(-c3cccc(C)c3)c(=O)n1Cc1cccc(Cl)c1)n2C`, the survival is inactive: 84%.

With `COc1ccccc1CNc1ncnc2c1cnn2-c1ccc(C)cc1`, the survival is inactive: 102%.

Regarding `COc1ccc(C(C(=O)NC2CCCCC2)N(Cc2ccc3c(c2)OCO3)C(=O)c2cnccn2)cc1OC` (stereo unspecified), the survival is inactive: 82%.

With `COc1ccc(-c2nn(-c3ccccc3)cc2C2NC(=O)NC(C)=C2C(=O)OC(C)C)cc1OC` (stereo unspecified), the survival was inactive: 80%.

As to `Cc1ccc(-c2noc(-c3nnn(-c4cccc(C(F)(F)F)c4)c3N)n2)cc1`, the survival was inactive: 90%.

For `Cc1ccc(-n2nc3c(N4CCC(C(=O)NCCc5ccccc5C)CC4)nnc(C)c3c2C)cc1`, the survival was inactive: 77%.

With `CCCC(CCC)C(=O)Nc1cccc(-c2nc3cccnc3s2)c1`, the survival was inactive: 92%.

As for `CCc1ccccc1NC(=O)N1CCC2(CC1)Oc1ccccc1C(=O)N2Cc1ccccc1F`, the survival is inactive: 83%.

For `CCOc1ccc(C(=O)NCC(c2ccc3c(c2)OCO3)N2CCN(c3ccc(F)cc3)CC2)cc1` (stereo unspecified), the survival is inactive: 87%.
